Source: patent US20260217856A1 (MIE UNIVERSITY, published 2026)
Read-outs that look alike come from different tables or passages of the source.

T1: CD19 (human, UniProt P15391 20-556)
T1 sequence (looked up): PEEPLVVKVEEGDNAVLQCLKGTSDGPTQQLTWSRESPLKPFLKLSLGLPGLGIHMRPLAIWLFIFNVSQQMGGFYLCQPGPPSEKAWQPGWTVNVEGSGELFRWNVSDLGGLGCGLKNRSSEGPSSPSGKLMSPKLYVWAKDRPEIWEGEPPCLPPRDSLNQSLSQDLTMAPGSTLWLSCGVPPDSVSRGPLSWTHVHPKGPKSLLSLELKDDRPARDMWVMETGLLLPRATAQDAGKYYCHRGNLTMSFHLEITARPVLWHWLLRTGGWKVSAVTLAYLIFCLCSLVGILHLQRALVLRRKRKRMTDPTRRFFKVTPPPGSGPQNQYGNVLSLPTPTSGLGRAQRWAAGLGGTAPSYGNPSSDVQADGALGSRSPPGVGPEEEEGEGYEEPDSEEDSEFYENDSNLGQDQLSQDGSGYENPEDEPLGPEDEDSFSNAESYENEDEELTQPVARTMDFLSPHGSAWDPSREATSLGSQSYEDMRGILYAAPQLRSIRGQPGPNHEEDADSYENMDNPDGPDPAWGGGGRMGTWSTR

B1: CD19-28z-m17 (other)
chain: DIQMTQTTSSLSASLGDRVTISCRASQDISKYLNWYQQKPDGTVKLLIYHTSRLHSGVPSRFSGSGSGTRYRLRISNLEQEDIATYFCQQGNTLPYTFGGGTKLEITGGGGSGGGGSGGGGSEVKLQESGPGLVAPSQSLSVTCTVSGVSLPDYGVSWIRQPPRKGLEWLGVIWGSETTYYNSALKSRLTIIKDNSKSQVFLKMNSLQTDDTAIYYCAKHYYYGGSYAMDYWGQGTSVTVSSIEVMYPPPYLDNEKSNGTIIHVKGKHLCPSPLFPGPSKPFWVLVVVGGVLACYSLLVTVAFIIFWVRSKRSRLLHSDYMNMTPRRPGPTRKHYQPYAPPRDFAAYRSL[about 120 residues left out here]
B2: CD19-28z-m3 (other)
chain: DIQMTQTTSSLSASLGDRVTISCRASQDISKYLNWYQQKPDGTVKLLIYHTSRLHSGVPSRFRGRGSGTRYRLTISNLEQEDIATYFCQQGNTLPYTFGGGTKLEITGGGGSGGGGSGGGGSEVKLQESGPGLVAPSQSLSVTCTVSGVSLPDYGVSWIRQPPRKGLEWLGVIWGSETTYYNSALKSRLTIIKDNSKSQVFLKMNSLQTDDTAIYYCAKHYYYGGSYAMDYWGQGTSVTVSSIEVMYPPPYLDNEKSNGTIIHVKGKHLCPSPLFPGPSKPFWVLVVVGGVLACYSLLVTVAFIIFWVRSKRSRLLHSDYMNMTPRRPGPTRKHYQPYAPPRDFAAYRSL[about 120 residues left out here]
B3: CD19-28z-m4 (other)
chain: DIQMTQTTSSLSASLGDRVTISCRASQDISKYLNWYQQKPDGTVKLLIYHTSRLHSGVPSRFSGRGRGTRYRLTISNLEQEDIATYFCQQGNTLPYTFGGGTKLEITGGGGSGGGGSGGGGSEVKLQESGPGLVAPSQSLSVTCTVSGVSLPDYGVSWIRQPPRKGLEWLGVIWGSETTYYNSALKSRLTIIKDNSKSQVFLKMNSLQTDDTAIYYCAKHYYYGGSYAMDYWGQGTSVTVSSIEVMYPPPYLDNEKSNGTIIHVKGKHLCPSPLFPGPSKPFWVLVVVGGVLACYSLLVTVAFIIFWVRSKRSRLLHSDYMNMTPRRPGPTRKHYQPYAPPRDFAAYRSL[about 120 residues left out here]
B4: CD19-28z-m20 (other)
chain: DIQMTQTTSSLSASLGDRVTISCRASQDISKYLNWYQQKPDGTVKLLIYHTSRLHSGVPSRFSGSGSGTDYSLTISRLRQRDIATYFCQQGNTLPYTFGGGTKLEITGGGGSGGGGSGGGGSEVKLQESGPGLVAPSQSLSVTCTVSGVSLPDYGVSWIRQPPRKGLEWLGVIWGSETTYYNSALKSRLTIIKDNSKSQVFLKMNSLQTDDTAIYYCAKHYYYGGSYAMDYWGQGTSVTVSSIEVMYPPPYLDNEKSNGTIIHVKGKHLCPSPLFPGPSKPFWVLVVVGGVLACYSLLVTVAFIIFWVRSKRSRLLHSDYMNMTPRRPGPTRKHYQPYAPPRDFAAYRSL[about 120 residues left out here]
B5: CD19-28z-m18 (other)
chain: DIQMTQTTSSLSASLGDRVTISCRASQDISKYLNWYQQKPDGTVKLLIYHTSRLHSGVPRRFRGSGSGTDYSLTIRNLEQEDIATYFCQQGNTLPYTFGGGTKLEITGGGGSGGGGSGGGGSEVKLQESGPGLVAPSQSLSVTCTVSGVSLPDYGVSWIRQPPRKGLEWLGVIWGSETTYYNSALKSRLTIIKDNSKSQVFLKMNSLQTDDTAIYYCAKHYYYGGSYAMDYWGQGTSVTVSSIEVMYPPPYLDNEKSNGTIIHVKGKHLCPSPLFPGPSKPFWVLVVVGGVLACYSLLVTVAFIIFWVRSKRSRLLHSDYMNMTPRRPGPTRKHYQPYAPPRDFAAYRSL[about 120 residues left out here]
B6: CD19-28z-m1 (other)
chain: DIQMTQTTSSLSASLGDRVTISCRASQDISKYLNWYQQKPDGTVKLLIYHTSRLHSGVPSRFRGRGRGTRYSLTISNLEQEDIATYFCQQGNTLPYTFGGGTKLEITGGGGSGGGGSGGGGSEVKLQESGPGLVAPSQSLSVTCTVSGVSLPDYGVSWIRQPPRKGLEWLGVIWGSETTYYNSALKSRLTIIKDNSKSQVFLKMNSLQTDDTAIYYCAKHYYYGGSYAMDYWGQGTSVTVSSIEVMYPPPYLDNEKSNGTIIHVKGKHLCPSPLFPGPSKPFWVLVVVGGVLACYSLLVTVAFIIFWVRSKRSRLLHSDYMNMTPRRPGPTRKHYQPYAPPRDFAAYRSL[about 120 residues left out here]
B7: CD19-28z-m19 (other)
chain: DIQMTQTTSSLSASLGDRVTISCRASQDISKYLNWYQQKPDGTVKLLIYHTSRLHSGVPRRFSGSGSGTDYSLRIRNLEQEDIATYFCQQGNTLPYTFGGGTKLEITGGGGSGGGGSGGGGSEVKLQESGPGLVAPSQSLSVTCTVSGVSLPDYGVSWIRQPPRKGLEWLGVIWGSETTYYNSALKSRLTIIKDNSKSQVFLKMNSLQTDDTAIYYCAKHYYYGGSYAMDYWGQGTSVTVSSIEVMYPPPYLDNEKSNGTIIHVKGKHLCPSPLFPGPSKPFWVLVVVGGVLACYSLLVTVAFIIFWVRSKRSRLLHSDYMNMTPRRPGPTRKHYQPYAPPRDFAAYRSL[about 120 residues left out here]
B8: CD19-28z-m2 (other)
chain: DIQMTQTTSSLSASLGDRVTISCRASQDISKYLNWYQQKPDGTVKLLIYHTSRLHSGVPSRFRGRGRGTDYRLTISNLEQEDIATYFCQQGNTLPYTFGGGTKLEITGGGGSGGGGSGGGGSEVKLQESGPGLVAPSQSLSVTCTVSGVSLPDYGVSWIRQPPRKGLEWLGVIWGSETTYYNSALKSRLTIIKDNSKSQVFLKMNSLQTDDTAIYYCAKHYYYGGSYAMDYWGQGTSVTVSSIEVMYPPPYLDNEKSNGTIIHVKGKHLCPSPLFPGPSKPFWVLVVVGGVLACYSLLVTVAFIIFWVRSKRSRLLHSDYMNMTPRRPGPTRKHYQPYAPPRDFAAYRSL[about 120 residues left out here]

What was measured:
Assay in all cases: cell-based or functional assay
CD19 [1] = biological target: T1, CD19
CD19 [2] = biological target: T1, CD19; remark: listed apart in the source
CD19 [3] = biological target: T1, CD19; remark: listed apart in the source

Row | Binder | IFNγ production, co-culture with Nalm-6 (CD19 [1]) | cytotoxic activity, effector:target 1:1, Nalm-6 target cells (CD19 [1]) | cytotoxic activity, effector:target 3:1, Nalm-6 target cells (CD19 [1]) | IFNγ production, co-culture with Nalm-6 (CD19 [2]) | cytotoxic activity, effector:target 1:1, Nalm-6 target cells (CD19 [2]) | cytotoxic activity, effector:target 3:1, Nalm-6 target cells (CD19 [2]) | IFNγ production, co-culture with Nalm-6 (CD19 [3]) | cytotoxic activity, effector:target 1:1, Nalm-6 target cells (CD19 [3]) | cytotoxic activity, effector:target 3:1, Nalm-6 target cells (CD19 [3])
1 | B1 | 0.34 ratio to WT CAR-T (1.00) | 2.43 ratio to WT CAR-T (1.00) | 1.43 ratio to WT CAR-T (1.00) | – | – | – | – | – | –
2 | B2 | – | – | – | 0.26 ratio to WT CAR-T (1.00) | 1.26 ratio to WT CAR-T (1.00) | 0.91 ratio to WT CAR-T (1.00) | 0.27 ratio to WT CAR-T (1.00) | 1.37 ratio to WT CAR-T (1.00) | 1.09 ratio to WT CAR-T (1.00)
3 | B3 | – | – | – | – | – | – | 0.29 ratio to WT CAR-T (1.00) | 1.49 ratio to WT CAR-T (1.00) | 1.17 ratio to WT CAR-T (1.00)
4 | B4 | 0.39 ratio to WT CAR-T (1.00) | 1.9 ratio to WT CAR-T (1.00) | 1.57 ratio to WT CAR-T (1.00) | – | – | – | – | – | –
5 | B5 | 0.28 ratio to WT CAR-T (1.00) | 1.42 ratio to WT CAR-T (1.00) | 1.27 ratio to WT CAR-T (1.00) | – | – | – | – | – | –
6 | B6 | – | – | – | 0.25 ratio to WT CAR-T (1.00) | 1.3 ratio to WT CAR-T (1.00) | 1.03 ratio to WT CAR-T (1.00) | 0.31 ratio to WT CAR-T (1.00) | 1.56 ratio to WT CAR-T (1.00) | 1 ratio to WT CAR-T (1.00)
7 | B7 | 0.68 ratio to WT CAR-T (1.00) | 1.76 ratio to WT CAR-T (1.00) | 1.38 ratio to WT CAR-T (1.00) | – | – | – | – | – | –
8 | B8 | – | – | – | 0.24 ratio to WT CAR-T (1.00) | 1.19 ratio to WT CAR-T (1.00) | 0.9 ratio to WT CAR-T (1.00) | – | – | –
